Measurements published in patent US20240239885A1, “ANTIBODY CONJUGATE COMPRISING ANTI-P-CADHERIN ANTIBODY AND USES THEREOF” (WUXI BIOLOGICS IRELAND LIMITED, priority 2021, published 2024).

Assays:
[1] = test system: MDA-MB-453; assay: Non-specific binding (FACS) on MDA-MB-453; set-up: species or system human; conditions: MDA-MB-453, 10 μg/mL
Description: (§1) Human cell lines were seeded in 96-well plates (BD) at a density of 1×10^5 cells/well. 10 μg/mL antibody samples were added to cells and incubated for 1 h at 4° C. After washing, the cells were resuspended and incubated with PE-conjugated goat anti-human IgG Fc antibody (Jackson) for 30 min. After washing and resuspending, mean fluorescence intensity (MFI) was measured by flow cytometry (BD Canto II) and analyzed by FlowJo.

[2] = test system: HCC70 breast tumor; assay: Xenografted HCC70 breast tumor model, Study I; format: in vivo, SCID-17B female mice; conditions: 1 mg/kg, intravenous, single dose, vs Isotype control
Description: WBP3195-p1-ADC in efficacy study was tested in HCC70 breast tumor model in SCID-17B female mice. […] The tumor cells were routinely sub-cultured twice a week with 0.25% trypsin-EDTA treatment. The cells growing in an exponential growth phase were harvested and counted for tumor inoculation. The harvested cells were re-suspended in PBS at a density of 1.0×10^8 cells/mL then added the equivalent matrigel (final 1.0×10^7 cells/200 μL/mouse) with viability >90% and subcutaneously implanted into the right front flank of animals.
The day of intravenous injection was considered as day 0. For all tumor studies, mice were weighed and tumor growth was measured twice a week using calipers.
Ti is the average tumor volume of a treatment group on a given day. TO is the average tumor volume of the treatment group on the first day of treatment. Vi is the average tumor volume of the vehicle control group on the same day with Ti and V0 is the average tumor volume of the vehicle group on the first day of treatment. Relative change of bodyweight change (RCBW) was calculated with the formula [(BWt−BW0)/BW0]×100%, BW0 is the average bodyweight at day0, BWt is the average bodyweight at a measurement day. […] Data at day 34 were analyzed using Ordinary one-way ANOVA Tukey's multiple comparisons test with Graphpad Prism 6.0 and p<0.05 was considered as statistically significant.

[3] = test system: HCC-1954 cells; assay: Cytotoxicity assay of ADC (Cell Titer Glo) on HCC-1954; conditions: HCC-1954, 5 days
[4] = test system: 8505C; assay: Non-specific binding (FACS) on 8505C; set-up: species or system human; conditions: 10 μg/mL
Description: as §1

[5] = test system: HCC-1954 cells; assay: Antibody mediated internalization assay (HCS) on HCC-1954; format: cell-based, human
Description: Operetta CLS (PerkinElmer) is a high content imaging and analysis system that can collect and analyze images of samples with high speed and sensitivity. One day before the assay day, Poly-D-Lysine (PDL) was diluted to 8 μg/mL in DPBS (Hyclone, #SH30028.03) and added 100 μL/well into 96-well clear bottom black plates (Greinier, #655090). The PDL-coated plates were then incubated at 37° C. for 1 hour before discarding the supernatant. HCC-1954 (ATCC, CRL-2338) cells or NCI-H1650 (ATCC, CRL-5883) cells were plated at 18000 cells per well into the PDL-coated plates in 100 μL RPMI1640 complete medium (Gibco, #22400-089) containing 10% FBS (Hyclone, #SH30084.03). On Day 1, supernatants in the plates were discarded and antibodies serially diluted in 1% BSA/1×PBS (Ca+/Mg+) were added at 100 µL/well and incubated at 4° C. for 2 hours. A non-related hlgG1 antibody was used as an isotype control. […]
Images were collected and analyzed by operetta CLS (PerkinElmer). The amount of internalized anti-P-cadherin antibody was assessed by measuring the mean fluorescence (MFI) per cell, wells containing no antibody or secondary antibody only were used to establish background fluorescence. […]

[6] = test system: HT29; assay: Non-specific binding (FACS) on HT29; set-up: species or system human; conditions: HT29, 10 μg/mL
Description: as §1

[7] = molecular target: T1, huCDH3 ECD (Homo sapiens, UniProt P22223); assay: Domain determination binding (ELISA), full ECD; conditions: concluded from ELISA on ECD truncations
T1 construct: huCDH3 ECD, Uniprot ID: P22223 in part; 6xHis (C); made in house
T1 sequence (P22223 108-654): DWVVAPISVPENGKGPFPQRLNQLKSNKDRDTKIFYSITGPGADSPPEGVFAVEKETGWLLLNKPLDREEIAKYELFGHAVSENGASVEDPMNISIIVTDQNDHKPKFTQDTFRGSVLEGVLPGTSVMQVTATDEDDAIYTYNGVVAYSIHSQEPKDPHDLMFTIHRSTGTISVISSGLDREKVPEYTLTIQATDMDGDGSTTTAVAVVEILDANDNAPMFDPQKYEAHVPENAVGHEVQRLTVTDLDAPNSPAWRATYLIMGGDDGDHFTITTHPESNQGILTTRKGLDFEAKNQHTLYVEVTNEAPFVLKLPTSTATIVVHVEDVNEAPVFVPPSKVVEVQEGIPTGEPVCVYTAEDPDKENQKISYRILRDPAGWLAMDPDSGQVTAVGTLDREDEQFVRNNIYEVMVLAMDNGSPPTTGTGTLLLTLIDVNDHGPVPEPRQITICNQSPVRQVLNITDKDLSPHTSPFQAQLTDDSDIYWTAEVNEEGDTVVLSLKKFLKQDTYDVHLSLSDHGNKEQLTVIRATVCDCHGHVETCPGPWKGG
Description: The binding domains of the antibody drug conjugates to human P-Cadherin extra cellular domain (ECD) were determined by a direct protein binding ELISA. 96-well high protein binding ELISA plates (Nunc) were coated overnight at 4° ° C. with antigens in coating buffer. All wells were washed three time with PBS/0.5%. Tween-20 (v/v) and all the following wash steps in the assay were performed the same. The wells were then blocked for one hour with 2% BSA (Bovogen)/1×PBS (Ca+/Mg+) (Gibco) and washed three times. For the primary antibody binding, the testing antibodies including the BMKs and our antibodies serially diluted in 2% BSA/1×PBS (Ca+/Mg+) were added to the relevant wells and incubated at ambient temperature for two hours. […]
For the binding detection, 100 μL Tetramethylbenzidine (TMB) Substrate solution (Invitrogen) was added to all wells before stopping the reaction with 100 μL 2M HCl. The extent of the testing Abs binding to P-Cadherin ECD (i.e. huCDH3 ECD, Uniprot ID: P22223 in part), P-Cadherin ECD domain 1 (aa 108-236), P-Cadherin ECD domain 1+2 (aa 108-348), P-Cadherin ECD domain 1+2+3 (aa 108-461), P-Cadherin ECD domain 1+2+3+4 (aa 108-550) proteins were determined by measuring the OD450-OD540 absorbance using the SpectraMax® M5e microplate reader. […]

[8] = test system: A204; assay: Non-specific binding (FACS) on A204; set-up: species or system human; conditions: A204, 10 μg/mL
Description: as §1

B1: W3195-1.53.1-p1-uIgG1L-MMAE (conjugate)
heavy: QVQLQESGPGLVKPSETLSLTCTVSGGSVISDNYYWTWVRQPPGKGLEFIGYIYYRGSTNYNPSLKNRVIISIDTSRNQFSLDLNSVTAADTAVYYCARDRRTGNSLPFDNWGQGTLVTVSSASTKGPSVFPLAPSSKSTSGGTAALGCLVKDYFPEPVTVSWNSGALTSGVHTFPAVLQSSGLYSLSSVVTVPSSSLGTQTYICNVNHKPSNTKVDKRV[human IgG1 Fc not written out]
light: SYELTQPPSVSVSPGQTAQITCSGDKLGDKFASWYQQKSGQSPVVVIYQDNKRPSGFPERFSGSNSGNTATLTISGTQAMDEADYYCQAWDSSIVVFGGGTKLTVLGQPKAAPSVTLFPPSSEELQANKATLVCLISDFYPGAVTVAWKADSSPVKAGVETTTPSKQSNNKYAASSYLSLTPEQWKSHRSYSCQVTHEGSTVEKTVAPTECS
MFI, non-specific binding [1]: 47.4
TGI (%), Day 34 [2]: 85.15%
Max Inh % [3]: 96.9%
MFI, non-specific binding [4]: 26.5
Top MFI, internalization in HCS assay [5]: 1280
MFI, non-specific binding [6]: 26.4
binding domain on human P-Cadherin ECD [7]: Domain 3
MFI, non-specific binding [8]: 29.4
